# Assay results as given in PubChem BioAssay (NCI).
# Several values for one entry are separate records, joined by “and”; a condition that tells them apart may be missing. Equal values may be shown once.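 Grown in 96-well plates, cells were treated for 48 hours with each compound at five concentrations. Insufficient inhibition: endpoint recorded as highest concentration tested. GI50 is the concentration that inhibits growth by half. At the TGI there is no net growth.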 Activity calls are given as the source filed them.
# Tests used:
# Assay in all cases: NCI-60 cell line screen, 48 h
# OVCAR-5 ovarian = system: OVCAR-5 ovarian
# SF-539 CNS = system: SF-539 CNS
# EKVX NSCLC = system: EKVX NSCLC
# A498 renal = system: A498 renal
# NCI-H522 lung = system: NCI-H522 lung
# SW-620 colon = system: SW-620 colon
# SK-OV-3 ovarian = system: SK-OV-3 ovarian
# NCI-H226 lung = system: NCI-H226 lung
# U251 CNS = system: U251 CNS
# HCT-116 colon = system: HCT-116 colon
# MDA-MB-435 = system: MDA-MB-435
# MOLT-4 leukemia = system: MOLT-4 leukemia
# SF-268 CNS = system: SF-268 CNS
# NCI-H460 lung = system: NCI-H460 lung
# MDA-MB-231 breast = system: MDA-MB-231 breast
# MCF7 breast = system: MCF7 breast
# UACC-257 melanoma = system: UACC-257 melanoma
# UACC-62 melanoma = system: UACC-62 melanoma
# SNB-19 CNS = system: SNB-19 CNS
# TK-10 renal = system: TK-10 renal
# HT29 colon = system: HT29 colon
# OVCAR-8 ovarian = system: OVCAR-8 ovarian
# A549 NSCLC = system: A549 NSCLC
# SNB-75 CNS = system: SNB-75 CNS
# KM12 colon = system: KM12 colon
# M14 melanoma = system: M14 melanoma
# HCT-15 colon = system: HCT-15 colon
# HS 578T breast = system: HS 578T breast
# 786-0 renal = system: 786-0 renal
# HCC-2998 colon = system: HCC-2998 colon
# IGROV1 ovarian = system: IGROV1 ovarian
# SN12C renal = system: SN12C renal
# DU-145 prostate = system: DU-145 prostate
# SK-MEL-5 melanoma = system: SK-MEL-5 melanoma
# SK-MEL-28 melanoma = system: SK-MEL-28 melanoma
# LOX IMVI melanoma = system: LOX IMVI melanoma
# HOP-62 NSCLC = system: HOP-62 NSCLC
# SF-295 CNS = system: SF-295 CNS
# OVCAR-3 ovarian = system: OVCAR-3 ovarian
# HL-60(TB) leukemia = system: HL-60(TB) leukemia
# NCI-H23 lung = system: NCI-H23 lung
# BT-549 breast = system: BT-549 breast
# PC-3 prostate = system: PC-3 prostate
# RXF 393 renal = system: RXF 393 renal
# SK-MEL-2 melanoma = system: SK-MEL-2 melanoma
# COLO 205 colon = system: COLO 205 colon
# K-562 leukemia = system: K-562 leukemia
# ACHN renal = system: ACHN renal
# T-47D breast = system: T-47D breast
# OVCAR-4 ovarian = system: OVCAR-4 ovarian
# UO-31 renal = system: UO-31 renal
# CAKI-1 renal = system: CAKI-1 renal
compound,measurement,setting,value
O=C(CCCCCCC(=O)Nc1ccccc1)NO,GI50,OVCAR-5 ovarian,inactive
same,TGI,OVCAR-5 ovarian,6.49 µM and 11.4 µM
same,GI50,SF-539 CNS,inactive
same,TGI,SF-539 CNS,> 100 µM and 48.3 µM
same,GI50,EKVX NSCLC,inactive
same,TGI,EKVX NSCLC,> 100 µM and 52.9 µM
same,GI50,A498 renal,inactive
same,TGI,A498 renal,2.96 µM and 6.69 µM
same,GI50,NCI-H522 lung,inactive
same,TGI,NCI-H522 lung,5.96 µM and 6.9 µM
same,GI50,SW-620 colon,inactive
same,TGI,SW-620 colon,19.4 µM and 8.89 µM
same,GI50,SK-OV-3 ovarian,inactive
same,TGI,SK-OV-3 ovarian,6.12 µM and 13.2 µM
same,GI50,NCI-H226 lung,inactive
same,TGI,NCI-H226 lung,22.4 µM and 64.2 µM
same,GI50,U251 CNS,inactive
same,TGI,U251 CNS,5.58 µM and 12.5 µM
same,GI50,HCT-116 colon,0.377 µM and 0.388 µM
same,TGI,HCT-116 colon,1.46 µM and 5.88 µM
same,GI50,MDA-MB-435,inactive
same,TGI,MDA-MB-435,7.63 µM and 5.91 µM
same,GI50,MOLT-4 leukemia,0.321 µM and 0.369 µM
same,TGI,MOLT-4 leukemia,4.33 µM and 11.1 µM
same,GI50,SF-268 CNS,inactive
same,TGI,SF-268 CNS,15.3 µM and 33.4 µM
same,GI50,NCI-H460 lung,inactive
same,TGI,NCI-H460 lung,> 100 µM and 71.4 µM
same,GI50,MDA-MB-231 breast,inactive
same,TGI,MDA-MB-231 breast,> 100 µM
same,GI50,MCF7 breast,inactive
same,TGI,MCF7 breast,> 100 µM and 41.2 µM
same,GI50,UACC-257 melanoma,inactive
same,TGI,UACC-257 melanoma,9.79 µM and 9.37 µM
same,TGI,UACC-62 melanoma,1.83 µM and 2.75 µM
same,GI50,SNB-19 CNS,inactive
same,TGI,SNB-19 CNS,54.1 µM and 17.9 µM
same,GI50,TK-10 renal,inactive
same,TGI,TK-10 renal,22.2 µM and 8.04 µM
same,GI50,HT29 colon,inactive
same,TGI,HT29 colon,> 100 µM and 15.6 µM
same,GI50,OVCAR-8 ovarian,inactive
same,TGI,OVCAR-8 ovarian,> 100 µM and 22.5 µM
same,GI50,A549 NSCLC,inactive
same,TGI,A549 NSCLC,> 100 µM and 22.1 µM
same,GI50,SNB-75 CNS,inactive
same,TGI,SNB-75 CNS,> 100 µM and 55.2 µM
same,GI50,KM12 colon,inactive
same,TGI,KM12 colon,19.6 µM and 22.9 µM
same,GI50,M14 melanoma,inactive
same,TGI,M14 melanoma,9.8 µM and 20.2 µM
same,GI50,HCT-15 colon,inactive
same,TGI,HCT-15 colon,> 100 µM and 85 µM
same,GI50,HS 578T breast,inactive
same,TGI,HS 578T breast,> 100 µM and 70 µM
same,GI50,786-0 renal,inactive
same,TGI,786-0 renal,15 µM and 55.2 µM
same,GI50,HCC-2998 colon,inactive
same,TGI,HCC-2998 colon,4.24 µM and 15.2 µM
same,GI50,IGROV1 ovarian,inactive
same,TGI,IGROV1 ovarian,9.28 µM and 8.15 µM
same,GI50,SN12C renal,inactive
same,TGI,SN12C renal,93.4 µM and 30.6 µM
same,GI50,DU-145 prostate,inactive
same,TGI,DU-145 prostate,30.4 µM and 17.9 µM
same,GI50,SK-MEL-5 melanoma,inactive
same,TGI,SK-MEL-5 melanoma,1.8 µM and 2.67 µM
same,GI50,SK-MEL-28 melanoma,inactive
same,TGI,SK-MEL-28 melanoma,6.74 µM and 8.51 µM
same,GI50,LOX IMVI melanoma,inactive
same,TGI,LOX IMVI melanoma,3.37 µM and 10.2 µM
same,GI50,HOP-62 NSCLC,inactive
same,TGI,HOP-62 NSCLC,33.9 µM and 77.3 µM
same,GI50,SF-295 CNS,inactive
same,TGI,SF-295 CNS,6.02 µM and 9 µM
same,GI50,OVCAR-3 ovarian,inactive
same,TGI,OVCAR-3 ovarian,17.2 µM and 9.77 µM
same,GI50,HL-60(TB) leukemia,inactive
same,TGI,HL-60(TB) leukemia,30.7 µM and 14 µM
same,GI50,NCI-H23 lung,inactive
same,TGI,NCI-H23 lung,11.7 µM and 9.81 µM
same,GI50,BT-549 breast,inactive
same,TGI,BT-549 breast,14.5 µM and 23.5 µM
same,GI50,PC-3 prostate,inactive
same,TGI,PC-3 prostate,> 100 µM and 67 µM
same,GI50,RXF 393 renal,inactive
same,TGI,RXF 393 renal,2.46 µM and 5.42 µM
same,GI50,SK-MEL-2 melanoma,inactive
same,TGI,SK-MEL-2 melanoma,> 100 µM and 17.1 µM
same,GI50,COLO 205 colon,inactive
same,TGI,COLO 205 colon,2.59 µM and 2.63 µM
same,GI50,K-562 leukemia,inactive
same,TGI,K-562 leukemia,11.9 µM
same,GI50,ACHN renal,inactive
same,TGI,ACHN renal,6.24 µM and 7.52 µM
same,GI50,T-47D breast,inactive
same,TGI,T-47D breast,26.6 µM and 4.36 µM
same,GI50,OVCAR-4 ovarian,inactive
same,TGI,OVCAR-4 ovarian,> 100 µM and 97.5 µM
same,GI50,UO-31 renal,inactive
same,TGI,UO-31 renal,7.58 µM and 6.32 µM
same,GI50,CAKI-1 renal,inactive
same,TGI,CAKI-1 renal,2.98 µM and 3.95 µM
